Over roughly 33,000 sequences, “E-score (-0.5 to 0.5)” has its median near -0.054; the highest 2% begin near 0.35. This is one part of the list.
target: T1, Stb5 (UniProt P38699); experiment: PBM E-score (8-mer binding enrichment) (E-score (-0.5 to 0.5)); higher = stronger / more preferred TF binding; most listed sequences are background and not binding sites; settings: protein concentration: 200 nM; construct: GST-full length
T1 sequence: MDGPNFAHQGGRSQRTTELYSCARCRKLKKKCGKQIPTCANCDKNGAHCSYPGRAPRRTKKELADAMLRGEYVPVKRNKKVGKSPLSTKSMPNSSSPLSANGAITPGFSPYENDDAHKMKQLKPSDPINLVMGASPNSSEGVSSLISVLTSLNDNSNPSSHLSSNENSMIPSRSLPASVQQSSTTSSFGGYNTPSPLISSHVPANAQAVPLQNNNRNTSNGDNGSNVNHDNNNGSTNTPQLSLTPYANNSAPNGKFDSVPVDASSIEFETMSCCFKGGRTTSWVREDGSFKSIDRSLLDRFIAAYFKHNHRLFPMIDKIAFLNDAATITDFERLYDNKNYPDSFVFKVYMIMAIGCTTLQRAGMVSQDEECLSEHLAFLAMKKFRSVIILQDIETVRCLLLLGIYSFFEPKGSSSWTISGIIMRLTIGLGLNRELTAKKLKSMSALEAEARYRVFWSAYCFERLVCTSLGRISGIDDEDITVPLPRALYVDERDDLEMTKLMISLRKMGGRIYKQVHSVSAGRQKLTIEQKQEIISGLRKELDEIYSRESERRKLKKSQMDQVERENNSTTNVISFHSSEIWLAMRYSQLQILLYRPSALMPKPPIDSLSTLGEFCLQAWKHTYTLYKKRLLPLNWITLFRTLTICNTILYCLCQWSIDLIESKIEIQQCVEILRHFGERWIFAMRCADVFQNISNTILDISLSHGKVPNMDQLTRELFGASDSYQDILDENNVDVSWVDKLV
Outline: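 Yeast transcription factors, full-length or as DNA-binding domains, were expressed with a GST tag using PURExpress in vitro transcription/translation. At about 100-200 nM they were applied to universal all-10-mer Agilent arrays, double-stranded by primer extension on fresh or once-stripped slides. Fluorescent anti-GST detected bound protein, and masliner normalised the scans. E-scores for ungapped eight-base words, pooled with reverse complements, came from the Universal PBM Analysis Suite.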

Sequence	PBM E-score
TGCGTACA	-0.281
CGCTGAGA	0.0792
AACCTTAC	-0.0791
CTGTGGTA	-0.0765
GCCAGAAA	-0.167
CCATATAC	0.0294
CAGCAGTC	-0.115
AGGGCGGC	0.232
ACACTTCT	-0.0711
ATTGATAG	-0.0574
CTATGAAA	-0.0568
ATATAACA	0.153
GACACCTA	0.0139
GTTCATAA	-0.0507
AATCTACC	0.0436
GTCTGTTA	-0.0938
CAACATAC	-0.00778
GAGTGCGA	-0.0379
CTTAAGCC	0.181
CCCAACGC	-0.0092
ACTTCACA	-0.198
CAGAGCAG	-0.254
ACAAGAAT	-0.107
AATTGTAC	-0.0892
ACGGCCCG	0.195

Sequence	PBM E-score
ACTCTCTC	-0.0585
ATGCGTTG	-0.0346
ACTGTTTG	-0.296
AGTATACA	-0.0104
GACTTAAA	0.122
ACTTTGGA	-0.067
CTGGGAAC	-0.155
GCATCCAC	-0.0534
GGTTTAAC	0.165
AAGATTCA	-0.00953
AAGACTAT	-0.206
CAGCCTAA	-0.239
AAGGGACT	-0.0514
GACACAGA	0.151
ACGGACAC	0.215
CTCCTCGA	-0.212
CTTCGCGC	-0.0963
CAACACGG	0.23
CCAACTAC	-0.0654
TATTAATA	0.261
CCATCGAG	-0.218
CCGCTCAG	0.296
ATCGAGAC	-0.168
AGCCATAT	-0.197
ATCGTGCA	-0.108

Sequence	PBM E-score
CAGGTTCA	-0.262
CTGGACTA	-0.143
CGTGTGAA	0.0103
GCGATCTA	-0.119
CCAAGGAG	-0.03
AAGGCAGA	-0.214
CTCTGGTC	0.0231
GTCTCCAC	-0.178
ACGTACTC	-0.159
CCCTATAA	-0.0737
CGATCCTC	-0.1
TCCATAAA	-0.324
AGATAATC	0.103
GATCCAGA	-0.174
CAGCGATA	0.0123
AATGGTTA	-0.146
CCACGCCG	0.111
AATTACCA	-0.0811
GAGACTGA	-0.156
GAATCGAC	0.0648
CTAACCTA	0.0543
CGCTTACA	-0.0187
GCCCATAA	0.121
CTGTAGCC	-0.0285
TGTAGCAA	-0.0607

Sequence	PBM E-score
GCTCACCA	-0.16
AAGCTTCC	-0.208
GGGCAGGA	-0.0876
ATTATGTC	-0.0356
GCTCCCCA	-0.316
CTTGGGCA	-0.0874
ATACGTAT	0.00623
ATCGGCGA	0.272
AACGATTA	-0.193
ATAGATTC	-0.148
ACCCTGCA	-0.16
ATGGCACG	0.101
CAACATGG	-0.0428
GGGACGTA	-0.0666
AAAAGTGT	-0.139
TAACCCTA	-0.172
GCGTAGCA	0.0274
ACCGCCGT	0.38
TAGTTTAA	0.0196
AACTCATT	-0.0597
CATGCATG	-0.273
AGTGGCCA	-0.256
AGTACCGG	0.367
AGAATACC	0.0954
CTAAGTAG	-0.175

Sequence	PBM E-score
GAGGTCGC	-0.0312
CGAGACTC	-0.0906
GACCGGGC	0.211
CCACTCCG	0.199
CTTAGTCA	-0.126
AAGCTACG	-0.0504
GTATTGGA	-0.0794
GATTGAGA	0.021
AAGGTTGG	-0.231
AATTAGAT	-0.13
GCATCGCA	-0.0259
GCCGAAAC	0.213
AACGATAC	-0.295
GATAGTCC	0.071
GCAATGCC	0.0649
CCACGTAA	-0.154
ATATTCAA	-0.153
GGACAAGA	0.0873
ACCGGATC	0.198
GTCCCCCA	-0.363
CCTAAGAA	-0.251
CGAATGAG	0.141
ATTTTACG	0.114
CCTCTAAC	0.00383
GGCTAAAA	0.131

Sequence	PBM E-score
ACTGACAT	-0.24
ATAGATCC	0.332
AGACGAGA	-0.251
TAATAACA	0.0646
GCCATGTA	0.0166
ACGATCCA	-0.199
AGACAAAG	-0.272
CAGTAATC	-0.229
AACTTTAT	-0.021
AGCTAGTA	-0.198
CTTCAAAC	-0.0803
GCGATGAA	0.0216
AGCTAGCT	-0.44
AGTATTTA	-0.153
ATGGTAGA	-0.175
CTGAAACA	0.00569
AACACGGT	0.103
GAGGAGGC	-0.219
CGATGTAG	-0.0702
CTTTCTTC	-0.126
AACAAATT	-0.146
GGAACATA	0.0234
CTAACGGA	0.297
AGAAATAC	0.0397
AGGATACG	-0.0379

Sequence	PBM E-score
CGATGAAC	0.126
ACAAGTGG	-0.17
AGGCGGTC	0.258
CCTCGCGA	-0.122
ACATGCAA	-0.165
ATCCGTAC	0.0997
CTTAAACC	-0.0424
GACAATCA	-0.0791
CGAGTAAG	-0.0321
CCTGTTTA	0.0509
CACGTGGC	-0.0602
GGACCACC	-0.107
GGCCCACA	-0.107
AGAGCTAG	-0.218
GTAGTCAC	-0.101
CTAGAGGA	-0.142
AAGGGGTG	-0.18
ACTTCGAT	-0.0947
CGCTACTC	0.0831
AGTGTAGC	-0.15
GCCTGCAA	-0.0794
GATCTGCC	0.0794

From the supplement of paper PMC3334620
